Data as given in the supplement of paper PMC3334620.
The full ranking holds about 33,000 sequences; the median of “E-score (-0.5 to 0.5)” is about -0.054, and the highest 2% start at about 0.35. Some of the results follow.

Biological target: T1, Stb5 (UniProt P38699)
T1 sequence: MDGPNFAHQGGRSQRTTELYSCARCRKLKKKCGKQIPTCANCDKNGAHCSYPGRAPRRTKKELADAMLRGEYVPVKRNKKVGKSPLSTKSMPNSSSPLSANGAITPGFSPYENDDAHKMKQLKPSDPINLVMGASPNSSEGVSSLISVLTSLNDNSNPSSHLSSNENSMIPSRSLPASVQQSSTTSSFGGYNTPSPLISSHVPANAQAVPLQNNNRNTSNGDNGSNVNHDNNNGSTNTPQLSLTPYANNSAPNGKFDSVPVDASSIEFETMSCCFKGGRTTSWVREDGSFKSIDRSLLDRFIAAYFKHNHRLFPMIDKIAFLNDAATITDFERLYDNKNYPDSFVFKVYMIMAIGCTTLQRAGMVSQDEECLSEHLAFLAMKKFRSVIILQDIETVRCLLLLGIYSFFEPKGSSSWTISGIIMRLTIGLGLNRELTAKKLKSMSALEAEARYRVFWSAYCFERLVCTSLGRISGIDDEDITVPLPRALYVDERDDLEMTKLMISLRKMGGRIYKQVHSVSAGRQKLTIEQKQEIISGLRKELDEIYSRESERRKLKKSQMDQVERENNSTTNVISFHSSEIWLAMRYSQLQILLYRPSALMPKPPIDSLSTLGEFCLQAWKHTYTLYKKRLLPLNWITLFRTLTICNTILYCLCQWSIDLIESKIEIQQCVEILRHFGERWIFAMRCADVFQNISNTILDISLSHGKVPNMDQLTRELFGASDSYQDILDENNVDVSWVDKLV
Test: PBM E-score (8-mer binding enrichment) (E-score (-0.5 to 0.5)); higher = stronger / more preferred TF binding; most listed sequences are background and not binding sites
Conditions: protein concentration: 200 nM; construct: GST-full length
Method in brief: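 Universal all-10-mer Agilent arrays, double-stranded by primer extension on fresh or once-stripped slides, were probed with about 100-200 nM GST-tagged yeast transcription factors made by PURExpress. Fluorescent anti-GST detected bound protein, and masliner normalised the scans. E-scores from the Universal PBM Analysis Suite were given to each ungapped eight-base word pooled with its reverse complement.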

Sequence	PBM E-score
CAGGGGAC	-0.0333
ACCTCCCG	0.0591
TATCTGCA	-0.21
AAATTCTT	-0.172
TACAAGGA	-0.119
GGCTCCTA	-0.106
CTTCACCC	0.0526
GTCACGCA	-0.165
ACCACCGG	0.406
CACCACTC	-0.0301
ACTCACTC	-0.139
CAGCAAGC	-0.34
AATTGAAC	-0.00222
GAGCCCCA	-0.0804
AGCGGCAA	0.2
ACTATAGA	-0.0232
CCATACAG	-0.233
ACCCCTGG	-0.15
AGCGCGCA	0.189
AATCCCTC	-0.179
CGAGCTTC	-0.0936
CATTTGCA	-0.0538
AAGTTGAA	-0.167
CCATACTC	-0.0212
ATGTCTCG	-0.136

Sequence	PBM E-score
AGAACCTA	-0.159
GCCTATGA	-0.0859
ACCATCTA	0.024
AGTTCAAG	-0.0241
GATGGATA	0.00277
TAAGGCGA	-0.135
ACCTTACT	0.0504
AACAGAGT	-0.132
GTACGTAA	-0.199
AATGCGAA	-0.0639
CCCAAGAA	-0.137
GTTATAAC	0.273
ATAACTCG	0.0637
AATCCAAT	-0.214
GCCATAAA	0.148
GGTAAACC	0.0169
GAGTACCA	-0.0731
TATCGTGA	-0.0961
AAACACCT	0.162
AGGTGTAC	-0.141
AGTTCCAT	-0.138
ACGCCCAC	-0.117
GGACTACC	0.0946
AAGATGTG	-0.189
TTAGACAA	-0.142

Sequence	PBM E-score
GGCGTCTA	0.0656
GGTTGTGA	-0.141
ATGACCTG	0.00256
AAGAAAAA	-0.183
GCGCTGAA	-0.06
CCTCAATA	-0.201
TCCAAAGA	-0.092
CTACTGAG	-0.121
ATTACTGA	-0.125
ACGCACCG	0.312
CGTTGCGA	-0.0103
GACGCAAA	-0.0121
GCTGACTA	-0.118
ACTATGCA	-0.236
TAGCTTAA	-0.134
GAAGCGCC	0.13
TAATATAA	0.133
CTGATCGC	-0.177
AATGAGTG	-0.0296
ATGCGGTC	0.142
CCCGCCCC	0.361
ATCACTAA	-0.0183
CCATGCGA	-0.115
AAGAATCC	-0.0879
CCTGCTAG	-0.0487

Sequence	PBM E-score
AAGGATGC	-0.244
AGGCATTC	-0.138
ACATCTCG	-0.145
AATTCATA	-0.0803
CCAGTTAA	-0.125
CCATAGAC	-0.194
GTTATCCA	-0.00256
AACGTAGG	-0.138
AACACGTA	-0.0511
GACCGTCC	0.21
CAAAGCTC	0.0303
CCAAACAG	-0.253
GAGTAGAC	-0.0296
GAGCGCTA	-0.106
AGTGACAT	-0.133
GCCAGGAA	-0.223
ACAGCAGG	0.0772
CATGGAAA	-0.0504
AATCATCA	-0.281
CCACGCGG	0.177
CCCATTAA	-0.226
GAGTGGGA	-0.18
GCTATTTA	0.11
GAAGCATA	-0.119
ATGACGGA	0.151

Sequence	PBM E-score
ACGCACTG	-0.108
AAAAGACA	0.0459
CTGTTTAC	-0.144
ACTCTGCC	-0.305
ACCGAGAA	0.116
CTCCTAAC	-0.2
ATGCGTAC	-0.0435
TCACAAGA	-0.114
CGCCGAAC	0.315
GTTTGCGA	0.0258
CGCAGCCA	-0.00206
ATAGCCAT	-0.301
AGTTGGGA	-0.221
GAGTGAGA	-0.0634
ATAGCTCG	-0.0247
CTACCAGA	0.0781
ACGACACA	-0.188
CGCGTTCC	0.0249
ATTCGACC	-0.061
TGTAATAA	0.0975
CTGATGAA	-0.227
AACCTGTC	-0.173
AGATTCCT	-0.202
GCCTATAC	-0.0694
GCATCTGA	-0.101

Sequence	PBM E-score
CAGCGAGG	-0.146
AAACGATT	-0.224
CAAGTAAG	-0.11
ACGAACCA	-0.0187
CCATTTGC	-0.031
CGGCAGAA	0.185
GGTCACGA	-0.178
TGGAACCA	-0.0381
CAAGGTGA	-0.178
ATAACCGA	0.229
GCAGTGCC	-0.0347
ATATGTCA	-0.104
AAATTAAT	0.0649
TGACGCCA	-0.0732
GCCTTAGA	0.064
CCTACACC	0.131
CATATGGA	-0.151
CGCCTATA	0.215
GAGCCGAC	0.201
ATTGCCCA	-0.198
CTGAGAAG	-0.16
ACTAACCC	-0.0396
GACGGAGA	0.279
AGTCATCG	-0.208
TCGTGTAA	0.0758

Sequence	PBM E-score
GACATAGA	-0.00934
TACCGCCA	0.323
CTCAAAAG	0.0069
CGTATGCC	0.07
TCCATTAA	0.109
GCGCCAGA	0.135
GTATCCAC	-0.0267
TTAGCAAA	0.0559
AAAGTGCG	0.159
ATTCATAG	-0.17
CAATTGGC	-0.167
CCGGAGCA	0.264
ACCGAACA	0.168
GCTTGTAC	-0.0129
AGCTCTGC	-0.343
TGTACAAA	-0.0295
AGAGTTAG	-0.129
CTGTATAA	-0.0702
AGCTTGCG	-0.0618
AATGTAGA	-0.152
CATCCAGC	-0.0401
CCATGGCC	-0.0436
